The campaign covered roughly 410,000 compounds. About 6,400 (1.6%) were called active. This list was built around the results that the source calls inconclusive (neither active nor inactive); the mix of calls is not that of the screen. Calls come from the whole dose curve; as a rule, active = well fitted inhibition curve with a large enough effect; inconclusive = small, poorly fitted or top-dose-only effect; inactive = no such curve, though single readings can be large or run the other way. Potencies of inconclusive entries are left out as doubtful fits.
Each compound was assayed against Glucagon-like peptide 1 receptor (Homo sapiens) (UniProt P43220) (assay: qHTS of GLP-1 Receptor Inverse Agonists (Inhibition Mode)). Conditions: HEK293 GLP-1R CRE-luciferase, luminescence, 24 h, GLP-1R form is constitutively active; series mostly up to 38.3 µM.
Chain of UniProt P43220 (P43220 whole entry, looked up): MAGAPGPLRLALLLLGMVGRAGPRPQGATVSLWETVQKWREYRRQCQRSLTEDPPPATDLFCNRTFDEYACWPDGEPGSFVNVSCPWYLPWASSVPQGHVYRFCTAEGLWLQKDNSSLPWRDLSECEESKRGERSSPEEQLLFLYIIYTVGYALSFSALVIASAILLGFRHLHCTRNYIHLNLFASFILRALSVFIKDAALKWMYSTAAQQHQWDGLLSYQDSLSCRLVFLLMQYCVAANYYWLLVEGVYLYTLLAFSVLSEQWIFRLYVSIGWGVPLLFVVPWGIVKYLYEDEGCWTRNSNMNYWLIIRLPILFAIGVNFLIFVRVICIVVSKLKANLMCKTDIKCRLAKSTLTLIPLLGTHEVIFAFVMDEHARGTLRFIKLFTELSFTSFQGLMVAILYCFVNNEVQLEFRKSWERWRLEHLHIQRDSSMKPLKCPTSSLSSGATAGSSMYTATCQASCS
Procedure, shortened: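 Seeding at 200 cells/uL, 12 h culture, 24 hr compound treatment, then luciferase reagent and a luminescence read; cells are HEK293 stably expressing a constitutively active GLP-1R plus cAMP-responsive luciferase.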
In the case of CC(SCc1ccccc1)C(=O)Nc1ccc(F)cc1 (configuration not stated), the Potency is reported as inconclusive [inhibitor, partial curve, poor fit].
With CC1=NN(C(=O)COc2ccccc2)C(O)(c2ccccc2)C1 (configuration not stated) the Potency was “inactive”.
O=C(Nc1ccccc1N1CCOCC1)c1ccccc1[N+](=O)[O-] was tested, and the Potency was “inactive”.
With COCCCNC(=O)c1ccccc1N(Cc1ccccc1)S(=O)(=O)c1ccc(OC)cc1 the Potency was inconclusive [inhibitor, single point].
For O/C(=C\c1ccc2ccccc2n1)c1ccncc1, the Potency was inconclusive [inhibitor, single point].
For Cc1nn(-c2ccccc2)c(C)c1C(=O)OCC(=O)Nc1ccccc1F, the Potency was “inactive”.
With Cc1ccc(S(=O)(=O)N2CCCc3ccccc32)cc1 the Potency was inconclusive [inhibitor, partial curve, poor fit].
COc1ccccc1CNS(=O)(=O)c1ccc(Br)s1 was tested, and the Potency was inconclusive [inhibitor, partial curve, poor fit].
Cc1ccc2nc(-c3cccc(Br)c3)c(Cc3ccccc3C(F)(F)F)n2c1 was tested, and the Potency was inconclusive [inhibitor, single point].
For Cc1cc(C)cc(NC(=O)NCc2nnc(SCc3ccccc3)n2C)c1, the Potency was inconclusive [inhibitor, single point].
In the case of Cc1ccc2c(C)c(C(=O)N(Cc3ccc(Cl)cc3)C3CCS(=O)(=O)C3)oc2c1 (configuration not stated), the Potency is reported as inconclusive [inhibitor, single point].
For CCOC(=O)N1CCN(C(=O)CSCC(=O)Nc2nc(-c3ccc(-c4ccccc4)cc3)cs2)CC1, the Potency was inconclusive [inhibitor, single point].
With OC(COc1ccc(Cl)cc1)CSc1ccccn1 (configuration not stated) the Potency was inconclusive [inhibitor, partial curve, poor fit].
O=C(CSc1nc(-c2ccco2)cc(C(F)(F)F)n1)N1CCN(c2cccc(Cl)c2)CC1 was tested, and the Potency was inconclusive [inhibitor, partial curve, poor fit].
c1ccc2c(C3OCC4(CCCC4)CO3)cccc2c1 was tested, and the Potency was inconclusive [inhibitor, partial curve, poor fit].
In the case of CCOC(=O)C1CCCN(C(=S)NC(=O)/C=C/c2ccc(F)cc2)C1 (configuration not stated), the Potency is reported as inconclusive [inhibitor, partial curve, poor fit].
For O=C1CN(C(=O)c2ccccc2C(F)(F)F)C(c2ccccc2)c2cc(F)ccc2N1 (configuration not stated), the Potency was “inactive”.
With COc1cc(F)c(C2=CC(=O)C[C@H](c3ccc(Cl)cc3)C2)cc1F the Potency was inconclusive [inhibitor, partial curve, poor fit].
In the case of O=C(NCC(c1ccco1)N1CCc2ccccc2C1)c1ccc(Cl)cc1 (configuration not stated), the Potency is reported as inconclusive [inhibitor, single point].
With COc1ccc(-c2csc(C(C)(O)c3ccc(OC)cc3)n2)cc1 (configuration not stated) the Potency was inconclusive [inhibitor, partial curve, poor fit].
COc1cc(C2C(c3ccccc3)C(c3cc(OC)cc(=O)o3)C2c2ccccc2)oc(=O)c1 (configuration not stated) was tested, and the Potency was inconclusive [inhibitor, single point].
COc1ccc(CC(=O)NCCc2ccc(Cl)cc2Cl)cc1 was tested, and the Potency was inconclusive [inhibitor, partial curve, poor fit].
CC(C)(C)NC(=O)NC(=O)CN1CCN(c2ccc(O)cc2)CC1 was tested, and the Potency was inconclusive [inhibitor, full curve, poor fit].
CCc1cc2c(=O)n(Cc3ccco3)c(SCc3c(C)noc3C)nc2s1 was tested, and the Potency was inconclusive [inhibitor, full curve, poor fit].
For O=C(CSc1nccn1-c1ccc(F)cc1)Nc1ccc(OC(F)(F)F)cc1, the Potency was inconclusive [inhibitor, single point].
COc1ccc(CCNC(=O)Nc2nc(C(N)Cc3ccccc3)cs2)cc1OC (configuration not stated) was tested, and the Potency was inconclusive [inhibitor, single point].
CCc1ccc(C2c3[nH]c4ccccc4c3CCN2C(=O)c2ccc(=O)n(C)n2)cc1 (configuration not stated) was tested, and the Potency was inconclusive [inhibitor, partial curve, poor fit].
Cc1cc(OCc2cc(C(=O)N(C)Cc3ccccn3)no2)cc(C)c1Cl was tested, and the Potency was active: 2 µM.
With Cc1ccc(S(=O)(=O)NCC(c2cccnc2)N2CCc3ccccc32)cc1 (configuration not stated) the Potency was inconclusive [inhibitor, partial curve, poor fit].
For O=[N+]([O-])c1ccc(/C=N/NC2=NS(=O)(=O)c3ccccc32)cc1, the Potency was “inactive”.
O=C(Cc1csc(-c2ccccc2)n1)Nc1ccc(C(F)(F)F)cc1 was tested, and the Potency was inconclusive [inhibitor, single point].
For CCOC(=O)C1=CCN(S(=O)(=O)c2ccc(Cl)cc2)C1c1ccccc1 (configuration not stated), the Potency was inconclusive [inhibitor, single point].
For COc1ccc2c(c1)-c1nc(/N=C/c3c(O)ccc4ccccc34)sc1CC2, the Potency was “inactive”.
With Cc1ccc([C@@H]2CC=C(C(=O)O)[C@H](c3ccc(C(C)(C)C)cc3)N2S(=O)(=O)c2ccc(C)cc2)cc1 the Potency was inconclusive [inhibitor, partial curve, poor fit].
CCC(C)NC(=O)c1nn(Cc2ccccc2)c(=O)c2ccccc12 (configuration not stated) was tested, and the Potency was inconclusive [inhibitor, full curve, poor fit].
O=C(Nc1ccnn1C1CCN(Cc2c[nH]c3ccccc23)CC1)c1ccccc1 was tested, and the Potency was inconclusive [inhibitor, partial curve, poor fit].
COC(=O)/C(=N/Nc1ccccc1C)N1CCCc2ccccc21 was tested, and the Potency was inconclusive [inhibitor, single point].
With CCC(C)NC(=S)N1CCN(C(c2ccccc2)c2ccccc2)CC1 (configuration not stated) the Potency was inconclusive [inhibitor, partial curve, poor fit].
CCN1CCN(c2cc(C)c3cc(NC(=S)N4CCOCC4)ccc3n2)CC1 was tested, and the Potency was inconclusive [inhibitor, single point].
For COc1ccc(CNC(=O)Cc2csc(NC(=O)Nc3ccccc3OC)n2)cc1, the Potency was inconclusive [inhibitor, partial curve, poor fit].
For CC(=O)Nc1ccc(S(=O)(=O)N2CCSc3ccccc32)cc1, the Potency was inconclusive [inhibitor, full curve].
CN(c1cccc(Cl)c1)S(=O)(=O)c1cccc(C(=O)Nc2nc3ccccc3[nH]2)c1 was tested, and the Potency was inconclusive [inhibitor, partial curve].
O=C(c1ccc2c(c1)N(Cc1ccc(F)cc1)CCS2)N1CCOCC1 was tested, and the Potency was inconclusive [inhibitor, partial curve, poor fit].
Cc1ncsc1CCOC(=O)C12CC3CC(CC(C3)C1)C2 was tested, and the Potency was inconclusive [inhibitor, partial curve, poor fit].
For COCCNC(=S)N1CCc2cc(OC)c(OC)cc2C1COc1ccc(F)cc1 (configuration not stated), the Potency was inconclusive [inhibitor, single point].
With Fc1ccc(NCc2nnc(SCc3ccccc3)o2)cc1 the Potency was inconclusive [inhibitor, single point].
For CCSc1nc(-c2ccc(OC)cc2)cc(-c2ccccc2)c1C#N, the Potency was “inactive”.
For Cc1cccc(N2CCN(C3CCCCC3NS(=O)(=O)c3ccccc3)CC2C)c1 (configuration not stated), the Potency was inconclusive [inhibitor, single point].
CCc1nc(NCC2CCCN2CC)c2nnn(Cc3ccccc3F)c2n1 (configuration not stated) was tested, and the Potency was inconclusive [inhibitor, partial curve, poor fit].
With Cc1cccc(NC(=O)c2ccc(S(=O)(=O)N3CCCC3)cc2)c1C the Potency was inconclusive [inhibitor, single point].
For CCC(CO)Nc1ncnc2c1cnn2-c1ccc(Cl)cc1 (configuration not stated), the Potency was inconclusive [inhibitor, partial curve, poor fit].
For Cc1nc(NCc2ccco2)[nH]c(=O)c1CCC(C)C, the Potency was inconclusive [inhibitor, single point].
Cn1c(SCc2ccc(C(F)(F)F)cc2)nc2c([nH]c3ccccc32)c1=O was tested, and the Potency was “inactive”.
Nc1ncc(-c2nnnn2-c2ccc(Cl)cc2)c(-c2ccc(Cl)cc2)n1 was tested, and the Potency was inconclusive [inhibitor, full curve].
O=C(CCCn1c(=O)[nH]c2cc(Cl)ccc2c1=O)NCCCN1CCCC1 was tested, and the Potency was inconclusive [inhibitor, single point].
In the case of CCCC/C(O)=C1\C(=O)CCCC1=NCCc1c(C)[nH]c2ccccc12, the Potency is reported as inconclusive [inhibitor, partial curve, poor fit].
For Cn1c(=O)c2cc(NC(=S)NC3CCCCC3)ccc2n1Cc1cccc(C(F)(F)F)c1, the Potency was inconclusive [inhibitor, partial curve].
With Cc1nc2c3ccccc3nc(NNC(=O)CCC(=O)NCCC(C)C)n2n1 the Potency was “inactive”.
With Cc1ccc(CN2C(=O)c3ccccc3NC2c2ccccn2)cc1 (configuration not stated) the Potency was “inactive”.
For CCOC(=O)c1c(-c2ccc(F)cc2)csc1NC(=O)c1c(-c2ccccc2)noc1C, the Potency was inconclusive [inhibitor, single point].
For O=C(NCCc1ccc(F)cc1)c1cccc(NC(=O)c2ccccc2)c1, the Potency was inconclusive [inhibitor, single point].
In the case of CC1CN(S(=O)(=O)c2cc(C(=O)N(CCc3ccccc3)Cc3ccccc3)ccc2Cl)CC(C)O1 (configuration not stated), the Potency is reported as inconclusive [inhibitor, single point].
Note: nearly all actives have a fitted effect of over 55% in size.
Potency is the fitted concentration of half-maximal effect; tags give direction and shape of the fitted curve.
